# Assay results reported in the supplement of paper PMC8728848.
# Some of the results follow.
# What was measured:
# Assay in all cases: glycan array binding signal (z-score within array); higher = stronger binding
# Conditions in all cases: glycan notation: IUPAC condensed, linker removed
# [1] = biological target: Neu5Ac(a2-6)Gal(b1-4)GlcNAc(b1-2)Man(a1-3)[Man(a1-6)]Man(b1-4)GlcNAc(b1-4)GlcNAc
# Method in brief: (§1)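 The binding signal is a Z-score computed within each array and averaged over linkers. Arrays of the same protein sequence at different concentrations or buffers were also averaged together. Data originate from 3228 arrays in the Consortium for Functional Glycomics database, kept only where the protein sequence was available.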
# [2] = biological target: Neu5Ac(a2-6)Gal(b1-4)GlcNAc(b1-2)Man(a1-3)[Neu5Ac(a2-6)Gal(b1-4)GlcNAc(b1-2)Man(a1-6)]Man(b1-4)GlcNAc(b1-4)GlcNAc
# Method in brief: as §1
# [3] = biological target: Neu5Ac(a2-6)Gal(b1-4)GlcNAc(b1-2)Man(a1-6)Man(b1-4)GlcNAc(b1-4)GlcNAc
# Method in brief: as §1
# [4] = biological target: Neu5Ac(a2-6)Gal(b1-4)GlcNAc(b1-2)Man(a1-6)[Gal(b1-4)GlcNAc(b1-2)Man(a1-3)]Man(b1-4)GlcNAc(b1-4)GlcNAc
# Method in brief: as §1
# [5] = biological target: Neu5Ac(a2-6)Gal(b1-4)GlcNAc(b1-2)Man(a1-6)[GlcNAc(b1-2)Man(a1-3)]Man(b1-4)GlcNAc(b1-4)GlcNAc
# Method in brief: as §1
# [6] = biological target: Neu5Ac(a2-6)Gal(b1-4)GlcNAc(b1-2)Man(a1-6)[Man(a1-3)]Man(b1-4)GlcNAc(b1-4)GlcNAc
# Method in brief: as §1
# [7] = biological target: Neu5Ac(a2-6)Gal(b1-4)GlcNAc(b1-3)Gal(b1-3)GlcNAc
# Method in brief: as §1
# [8] = biological target: Neu5Ac(a2-6)Gal(b1-4)GlcNAc(b1-3)Gal(b1-4)GlcNAc
# Method in brief: as §1
# [9] = biological target: Neu5Ac(a2-6)Gal(b1-4)GlcNAc(b1-3)Gal(b1-4)GlcNAc(b1-3)Gal(b1-4)GlcNAc
# Method in brief: as §1
# [10] = biological target: Neu5Ac(a2-6)Gal(b1-4)GlcNAc(b1-3)Gal(b1-4)[Fuc(a1-3)]GlcNAc(b1-3)Gal(b1-4)[Fuc(a1-3)]GlcNAc
# Method in brief: as §1
# [11] = biological target: Neu5Ac(a2-6)Gal(b1-4)GlcNAc(b1-3)GalNAc
# Method in brief: as §1
# [12] = biological target: Neu5Ac(a2-6)Gal(b1-4)GlcNAc6S
# Method in brief: as §1
# Neu5Ac(a2-6)GalNAc = biological target: Neu5Ac(a2-6)GalNAc
# Method in brief: as §1
# [13] = biological target: Neu5Ac(a2-6)GalNAc(b1-4)GlcNAc
# Method in brief: as §1
# [14] = biological target: Neu5Ac(a2-6)GlcNAc(b1-4)GlcNAc
# Method in brief: as §1
# [15] = biological target: Neu5Ac(a2-6)GlcNAc(b1-4)GlcNAc(b1-4)GlcNAc
# Method in brief: as §1
# Neu5Ac(a2-8)Neu5Ac = biological target: Neu5Ac(a2-8)Neu5Ac
# Method in brief: as §1
# [16] = biological target: Neu5Ac(a2-8)Neu5Ac(a2-3)Gal(b1-4)Glc
# Method in brief: as §1
# [17] = biological target: Neu5Ac(a2-8)Neu5Ac(a2-3)[Gal(b1-3)GalNAc(b1-4)]Gal(b1-4)Glc
# Method in brief: as §1
# [18] = biological target: Neu5Ac(a2-8)Neu5Ac(a2-3)[GalNAc(b1-4)]Gal(b1-4)Glc
# Method in brief: as §1
# [19] = biological target: Neu5Ac(a2-8)Neu5Ac(a2-8)Neu5Ac
# Method in brief: as §1
# [20] = biological target: Neu5Ac(a2-8)Neu5Ac(a2-8)Neu5Ac(a2-3)Gal(b1-4)Glc
# Method in brief: as §1
# [21] = biological target: Neu5Ac(a2-8)Neu5Ac(a2-8)Neu5Ac(a2-3)[GalNAc(b1-4)]Gal(b1-4)Glc
# Method in brief: as §1
# [22] = biological target: Neu5Ac(a2-8)Neu5Ac(a2-8)Neu5Ac(a2-8)Neu5Ac(a2-3)[GalNAc(b1-4)]Gal(b1-4)Glc
# Method in brief: as §1
# [23] = biological target: Neu5Ac(b2-6)Gal(b1-4)GlcNAc
# Method in brief: as §1
# Neu5Ac(b2-6)GalNAc = biological target: Neu5Ac(b2-6)GalNAc
# Method in brief: as §1
# [24] = biological target: Neu5Ac9Ac(a2-3)Gal(b1-3)GlcNAc
# Method in brief: as §1
# [25] = biological target: Neu5Ac9Ac(a2-3)Gal(b1-4)GlcNAc
# Method in brief: as §1
# [26] = biological target: Neu5Ac9Ac(a2-6)Gal(b1-4)GlcNAc
# Method in brief: as §1
# [27] = biological target: Neu5Gc(a2-3)Gal(b1-3)GlcNAc
# Method in brief: as §1
# [28] = biological target: Neu5Gc(a2-3)Gal(b1-3)[Fuc(a1-4)]GlcNAc
# Method in brief: as §1
# Neu5Gc(a2-3)Gal(b1-4)Glc = biological target: Neu5Gc(a2-3)Gal(b1-4)Glc
# Method in brief: as §1
# [29] = biological target: Neu5Gc(a2-3)Gal(b1-4)GlcNAc
# Method in brief: as §1
# [30] = biological target: Neu5Gc(a2-3)Gal(b1-4)[Fuc(a1-3)]GlcNAc
# Method in brief: as §1
# [31] = biological target: Neu5Gc(a2-6)Gal(b1-4)GlcNAc
# Method in brief: as §1
# Neu5Gc(a2-6)GalNAc = biological target: Neu5Gc(a2-6)GalNAc
# Method in brief: as §1
# [32] = biological target: Neu5Gc(b2-6)Gal(b1-4)GlcNAc
# Method in brief: as §1
binder,measurement,setting,value
"Tap1 (Sordaria macrospora), Q50IV4 (protein) MSHHHHHHHHYTLHLRLINDTSDTLTLVEQTSWWGKNTIWSQVRSTGVHVLSMAASGSSGMLRFQTSKGDFFAVAVGVHNYKRWCDVLVDTADEAPLTKLHPKYYDDKDAKYQALWAQASEFEAKSKSGKTVRIKFYQADGNVLRATVEYL",glycan array binding signal (z-score),[1],-0.18
same,glycan array binding signal (z-score),[2],-0.224
same,glycan array binding signal (z-score),[3],-0.238
same,glycan array binding signal (z-score),[4],-0.226
same,glycan array binding signal (z-score),[5],-0.234
same,glycan array binding signal (z-score),[6],-0.18
same,glycan array binding signal (z-score),[7],-0.233
same,glycan array binding signal (z-score),[8],-0.241
same,glycan array binding signal (z-score),[9],-0.241
same,glycan array binding signal (z-score),[10],-0.176
same,glycan array binding signal (z-score),[11],1.14
same,glycan array binding signal (z-score),[12],-0.094
same,glycan array binding signal (z-score),Neu5Ac(a2-6)GalNAc,-0.236
same,glycan array binding signal (z-score),[13],-0.241
same,glycan array binding signal (z-score),[14],-0.213
same,glycan array binding signal (z-score),[15],-0.241
same,glycan array binding signal (z-score),Neu5Ac(a2-8)Neu5Ac,-0.221
same,glycan array binding signal (z-score),[16],-0.242
same,glycan array binding signal (z-score),[17],-0.213
same,glycan array binding signal (z-score),[18],-0.24
same,glycan array binding signal (z-score),[19],-0.241
same,glycan array binding signal (z-score),[20],-0.246
same,glycan array binding signal (z-score),[21],-0.24
same,glycan array binding signal (z-score),[22],-0.222
same,glycan array binding signal (z-score),[23],-0.249
same,glycan array binding signal (z-score),Neu5Ac(b2-6)GalNAc,-0.232
same,glycan array binding signal (z-score),[24],-0.241
same,glycan array binding signal (z-score),[25],-0.212
same,glycan array binding signal (z-score),[26],-0.243
same,glycan array binding signal (z-score),[27],-0.23
same,glycan array binding signal (z-score),[28],-0.24
same,glycan array binding signal (z-score),Neu5Gc(a2-3)Gal(b1-4)Glc,-0.225
same,glycan array binding signal (z-score),[29],-0.238
same,glycan array binding signal (z-score),[30],-0.233
same,glycan array binding signal (z-score),[31],-0.231
same,glycan array binding signal (z-score),Neu5Gc(a2-6)GalNAc,-0.236
same,glycan array binding signal (z-score),[32],-0.233
